Experimental data: PubChem BioAssay AID330 (DTP/NCI, 2004)
Toxic doses and inconclusive results are not listed. A number of entries come with more than one value. They are shown here; other results are not. The source may hold further records. Values given together repeat one measurement across runs, samples, wells, individuals or studies.

System: P388 leukemia ip, CD2F1 mice, survival T/C
Assay: NCI In Vivo Anticancer Drug Screen. Data for tumor model P388 Leukemia (intraperitoneal) in CD2F1 (CDF1) mice
Conditions: endpoint: median survival time, higher = longer survival
[1] = dose: 100.0 mg/kg/injection, schedule: Q01DX009 (ip), vehicle: saline with Tween-80

Question: How did the T/C (dose: 50.0 mg/kg/injection, schedule: Q01DX009 (ip), vehicle: saline with Tween-80) turn out when ClC(Cl)(Cl)C1=NCc2nnn(Cc3ccccc3)c2N1 was run?
Answer: The T/C was 107 % of control and 189 % of control.

Question: CC1OC(OC2CC(O)(C(=O)CO)Cc3c(O)c4c(c(O)c32)C(=O)c2ccccc2C4=O)CC(N)C1O (stereo unspecified) was tested. Which T/C (dose: 0.13 mg/kg/injection, schedule: Q04DX003 (ip), vehicle: water) did it give?
Answer: Its T/C is 117 % of control and 166 % of control.

Question: Which T/C (dose: 3.12 mg/kg/injection, schedule: Q01DX009 (ip), vehicle: water) does the source give for CCCCSc1ccc(NN=O)nc1 here?
Answer: The T/C was 118 % of control and 153 % of control.

Question: With CCSC(=O)N1c2ccc(OC)cc2C=CC1C#N (stereo unspecified) as the compound, how does the T/C [1] read?
Answer: Its T/C is 109 % of control and 171 % of control.

Question: C[C@@H]1CN1C1=CC(=O)C(N2C[C@H]2C)=CC1=O was tested. Which T/C (dose: 10.0 mg/kg/injection, schedule: Q01DX009 (ip), vehicle: gum acacia) did it give?
Answer: The T/C was 111 % of control and 166 % of control.

Question: Which T/C [1] does the source give for CC1(C)N=C(N)N=C(N)N1c1ccc(CCC(=O)Nc2ccc(S(=O)(=O)F)cc2)cc1 here?
Answer: The T/C was 93 % of control and 168 % of control.
